± gives the standard error. For part of these data: Variants at the background level are over-represented here.
B1: glmS ribozyme (parent)
chain: AUAAAAGCGCCAGAACUACAGAAAUGUAGUUGACGAGGAGGAGGUUUAUCGAAUUUUCGGCGGAUGCCUCCAAA

Columns and labels:
Conditions in all cases: with glucosamine-6-phosphate
glucosamine-6-phosphate [1] = variants of: B1; experiment: self-cleavage kobs at 40 uM GlcN6P; higher = faster cleavage; RNA array
Outline: (§1)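 Weighted Michaelis–Menten fits across concentrations supplied kcat and KM, based on kobs from one- or two-exponential decay fits to normalised per-tile medians. The data came from barcoded ribozyme variants transcribed in situ by E. coli RNA polymerase on sequenced MiSeq chips and tracked at 37 °C by a hybridised Cy3 probe. Glucosamine-6-phosphate (40 μM to 10 mM) in HEPES/KCl/Mg(OAc)2 buffer was flowed in.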

glucosamine-6-phosphate [2] = variants of: B1; experiment: self-cleavage kobs at 2500 uM GlcN6P; higher = faster cleavage; RNA array
Outline: as §1

glucosamine-6-phosphate [3] = variants of: B1; experiment: self-cleavage kobs at 10000 uM GlcN6P; higher = faster cleavage; RNA array
Outline: as §1

glucosamine-6-phosphate [4] = variants of: B1; experiment: self-cleavage kobs at 640 uM GlcN6P; higher = faster cleavage; RNA array
Outline: as §1

glucosamine-6-phosphate [5] = variants of: B1; experiment: self-cleavage kobs at 160 uM GlcN6P; higher = faster cleavage; RNA array
Outline: as §1

Variant	self-cleavage kobs at 40 uM GlcN6P (glucosamine-6-phosphate [1])	self-cleavage kobs at 2500 uM GlcN6P (glucosamine-6-phosphate [2])	self-cleavage kobs at 10000 uM GlcN6P (glucosamine-6-phosphate [3])	self-cleavage kobs at 640 uM GlcN6P (glucosamine-6-phosphate [4])	self-cleavage kobs at 160 uM GlcN6P (glucosamine-6-phosphate [5])
AUAAAAGCGCCUGAACUACAGAAAUGUAGUUGACGAGGAGGAGGUUUAUCGAAUUUUUCGCGGAUGCCUCCAAA [A12U C58U G59C]	< 1e-05 s⁻¹				
AUAAAAGCGCCCGAACUACAGAAAUGUAGUUGACGCGGAGGAGGUUUAUCGAAGUUUCGGCGGAUGCCUCCAAA [A12C A36C U54G]	< 1e-05 s⁻¹				
AUAAAAGCGCCAAAACUACAGAAAUGUAGUUGACGAGGAGGAGGUUUAUCGAAUUUUCUGCGGAUGCCUCCAAA [G13A G59U]	< 1e-05 s⁻¹				
AUAAAAGCGCCUGAACUACAGAAAUGUAGUUGACGAGGAGGAGGUUGAUCGAAUUUUCGGCGGAUGCCUCCAAA [A12U U47G]	0.000706 ± 0.0001 s⁻¹	0.0123 ± 0.0039 s⁻¹	0.0118 ± 0.002 s⁻¹		
AUAAAAGCGCCUGAACUACAGAAAUGUAGUUGACGAGGAGGAGGUUUCUCGAAUUUUGGGCGGAUGCCUCCAAA [A12U A48C C58G]	< 1e-05 s⁻¹			< 1e-05 s⁻¹	< 1e-05 s⁻¹
AUAAAAGCGCUAGAACUACAGAAAUGUAGUUGACGAGGAGGAGGUUUAUCGAAUUUUCCGCGGAUGCCUCCAAA [C11U G59C]	< 1e-05 s⁻¹		< 1e-05 s⁻¹		< 1e-05 s⁻¹
AUAAAAGCGCCGGAACUACAGAAAUGUAGUUGACGAGGAGGUGGUUUAUCGAAUUUUCGGCGGAUGCCUCCAAA [A12G A42U]	< 1e-05 s⁻¹				< 1e-05 s⁻¹
AUAAAAGCGCCGGAACUACAGAAAUGUAGUUGACGAGGAGGAGGUUUAUCGAAUUUUCGGUGGAUGCCUCCAAA [A12G C61U]	< 1e-05 s⁻¹		< 1e-05 s⁻¹		< 1e-05 s⁻¹
AUAAAAGCGCCACAACUACAGAAAUGUAGUUGACGCGGAGGAGGUGUAUCGAAUUUUCGGCGGAUGCAUCCAAA [G13C A36C U46G C68A]	< 1e-05 s⁻¹		< 1e-05 s⁻¹		
AUAAAAGCGCCAAAACUACAGAAAUGUAGUUAACGAGGAGGAGGUUUAUCGAAUUUUCAGCGGAUGCCUCCAAA [G13A G32A G59A]	< 1e-05 s⁻¹				
AUAAAAGCGCCUGAACUACAGAAAUGUAGUUGACGAGGAGGAGGUUUAUCGAAUUUUCGGCGGAUGCCUCGAAA [A12U C71G]	0.000203 ± 2.3e-05 s⁻¹	0.000947 ± 0.00021 s⁻¹	0.00305 ± 0.00048 s⁻¹	0.00125 ± 0.00015 s⁻¹	0.000316 ± 5.2e-05 s⁻¹
AUAAAAGCGCCGGAACUACAGAAAUGUAGUUGACGAGGAGGAGGUUUAUCGGGUUUUCGGCGGAUGCCUCCAAA [A12G A52G A53G]	< 1e-05 s⁻¹				< 1e-05 s⁻¹
AUAAAAGCGCCCGAACUACAGAAAUGUAGUUGACGAGGAUGAGGGUUUUCGAAUUUUCGGCGGAUGCCUCCAAA [A12C G40U U45G A48U]	< 1e-05 s⁻¹				
AUAAAAGCGCCACAACUACAGAAAUGUAGUUGACGGGGUGGAGGUUUAUCGAAUUUUCGGCGGAUGCCUCCAAA [G13C A36G A39U]	< 1e-05 s⁻¹	< 1e-05 s⁻¹		< 1e-05 s⁻¹	
AUAAAAGCGCCGGAACUACAGAAAUGUAGUUGACGAGGAGGAGGUUUAUCAAAUUUUCGGCGGAUGGCUCCAAA [A12G G51A C67G]	< 1e-05 s⁻¹		< 1e-05 s⁻¹		
AUAAAAGCGCCGGAACUACAGAAAUGUAGUUGACGAGGAGUAGGUUUAUCGAAUUUUCGGCGGAUGCAUCCAAA [A12G G41U C68A]	< 1e-05 s⁻¹				
AUAAAAGCGCCGGAACUACAGAAAUGUACUUGACGAGGAGGAGGUUUAUCGAAUUUUCGGCGGAUGCCUCCAAA [A12G G29C]	< 1e-05 s⁻¹	4.98e-05 ± 1.3e-05 s⁻¹	0.000123 ± 1.4e-05 s⁻¹	3.94e-05 ± 1.1e-05 s⁻¹	< 1e-05 s⁻¹

Variant	self-cleavage kobs at 40 uM GlcN6P (glucosamine-6-phosphate [1])	self-cleavage kobs at 2500 uM GlcN6P (glucosamine-6-phosphate [2])	self-cleavage kobs at 10000 uM GlcN6P (glucosamine-6-phosphate [3])	self-cleavage kobs at 640 uM GlcN6P (glucosamine-6-phosphate [4])	self-cleavage kobs at 160 uM GlcN6P (glucosamine-6-phosphate [5])
AUAAAAGCGCCAAAACUACAGAAAUGUAGUUGACGAGGAGGAGCUUUAUCGAAUUUUCGGAGGAUGCCGCCAAA [G13A G44C C61A U69G]	< 1e-05 s⁻¹				
AUAAAAGCGCCGGAACUACAGAAAUGUAGUCGACGAGGAGGAGGUUUAUCGAAUUUUCGGCGAAUGCCUCCAAA [A12G U31C G63A]	< 1e-05 s⁻¹				
AUAAAAGCGCCCGAACUACAGAAAUGUAGUUGACGAGGAGGAGGUUUAUCGAAUUUUCGGCGGAUUCCUCCAAA [A12C G66U]	5.83e-05 ± 1.3e-05 s⁻¹	0.000865 ± 0.00014 s⁻¹	0.00133 ± 0.0002 s⁻¹	0.000586 ± 6.9e-05 s⁻¹	9.73e-05 ± 1.3e-05 s⁻¹
AUAAAAGCGCCUGAACUACAGAAAUGUAGUUGACGAGGAGGAGUUUUAUCGAAUUUUCGGCGGAUGCCUCCAAA [A12U G44U]	3.83e-05 ± 8.2e-06 s⁻¹				
AUAAAAGCGCCUGAACUACAGAAAUGUAGUUGACGAGGAGGAGGUUUAUCGAUUUUUCGGCGGAUGCCUCCAAA [A12U A53U]	0.00177 ± 0.00024 s⁻¹	0.0274 ± 0.007 s⁻¹	0.112 ± 0.036 s⁻¹	0.0159 ± 0.0029 s⁻¹	0.00421 ± 0.00071 s⁻¹
AUAAAAGCGCCAAAACUACAGAAAUGUAGUUGACGAGGAGGAGGUUCAUCGAAUUUUUGGCGGAUGCCUCUAAA [G13A U47C C58U C71U]	< 1e-05 s⁻¹				
AUAAAAGCGCUAGAACUACAGAAAUGUAGCUGACGAGGAGGAGGUUUAUCGCAUUUUCGGCGGAUGCCUCCAAA [C11U U30C A52C]	< 1e-05 s⁻¹				
AUAAAAGCGCCCGAACUACAGAAAUGUAGUUGACGAGGAGGAGGUUUAUCGAUUUUUCGGCGGAUGGCUGCAAA [A12C A53U C67G C70G]	< 1e-05 s⁻¹				
AUAAAAGCGCCCGAACUACAGAAAUGUAGUUAACGAGGAGGAGGUUUAUCGGAUUUUCGGCGGAUGCCUCCAAA [A12C G32A A52G]	< 1e-05 s⁻¹			< 1e-05 s⁻¹	< 1e-05 s⁻¹
AUAAAAGCGCCGGAACUACAGAAAUGUAGUUGCCGAGGAGGAGGCUGAUCGAAUUUUCGGCGGAUGCCUCUAAA [A12G A33C U45C U47G C71U]	< 1e-05 s⁻¹				
AUAAAAGCGCCUGAACUACAGAAAUGUAGUUGACGAGGAGGAGGUUUAUCGAAUUUUCGGCGGAUGCCUGCAAA [A12U C70G]	0.000124 ± 1.2e-05 s⁻¹		0.001 ± 0.00029 s⁻¹	0.000558 ± 0.00013 s⁻¹	0.000175 ± 2.3e-05 s⁻¹
AUAAAAGCGCCGCAACUACAGAAAUGUAGUUUACGAGGAAGAGGUUUAUCGAAUUUUCGGCGGCUGCCUCCAAA [A12G G13C G32U G40A A64C]	< 1e-05 s⁻¹				
AUAAAAGCGCCUGAACUACAGAAAUGUAGUUGACGAGGUGGAGGUUUAUCGAAUUUUCGGCGGAUGCCUCCAAA [A12U A39U]	0.00122 ± 0.00014 s⁻¹	0.00925 ± 0.0022 s⁻¹	0.0541 ± 0.013 s⁻¹	0.0129 ± 0.0047 s⁻¹	0.0029 ± 0.00074 s⁻¹
AUAAAAGCGCCUGAACUACAGAAAUGUAGUUGACGAGGAGGAGGUUUACCGAAUUUUCGGCGGAUGCCUCCAAA [A12U U49C]	< 1e-05 s⁻¹	< 1e-05 s⁻¹			
AUAAAAGCGCCUGAACUACAGAAAUGUAGUUGACGAGGAGGAGGUUUAUCGAAUUUUCGGCCGAUGCCUCUAAA [A12U G62C C71U]	< 1e-05 s⁻¹		< 1e-05 s⁻¹	< 1e-05 s⁻¹	
AUAAAAGCGCUAGAACUACAGAAAUGUAGUUGACGAGGAGGAGGUGUAUCGAAUUUUCUGCGGAUGCCUCCAAA [C11U U46G G59U]	< 1e-05 s⁻¹				

Reference: the supplement of paper PMC7125110
